From ChEMBL document CHEMBL4888484, “Replenishing the malaria drug discovery pipeline: Screening and hit evaluation of the MMV Hit Generation Library 1 (HGL1) against asexual blood stage Plasmodium falciparum ,using a nano luciferase reporter read-out” (2022)
In all, about 150,000 compounds went through this assay and about 540 (0.36%) showed an effect of 50% or more. Some of the results follow.

The compounds below were run on Plasmodium falciparum (assay: Primary screen in NF54 nanoGlo assay, in single point, at 2uM, 72h; a lower Z score goes with more inhibition). Conditions: timepoint 72 hour.
Format: functional, Erythrocyte

Row | SMILES | % Inhibition [%] | Z score
1 | Cn1cc(C(=O)NC[C@H]2Cc3ccccc3CO2)nn1 | 14 | -1.64
2 | Cc1ccc(Br)cc1C(=O)NS(=O)(=O)CC1CC1 | -11 | 1.1
3 | Cc1oc(CNC(=O)C(C)(C)C)nc1C(=O)N1CCC(C)CC1 | -7 | 0.88
4 | CCCN1C[C@@H](NC(=O)NCCNC(=O)c2ccccc2Cl)CC1=O | -11 | 1.56
5 | O=C1NCC(=O)N2CCN(C(=O)NCCCc3ccccc3F)C[C@@H]12 | 0 | -0.02
6 | O=C(NCCOCC1CC1)C(=O)Nc1cc(F)c(F)c(F)c1 | -6 | 1.07
7 | CCn1nnc2cc(C(=O)N3CC(C)OC(C)C3)ccc21 (configuration not stated) | -9 | 1.74
8 | O=C1CCC(C(=O)NC(Cc2ccccc2)[C@H]2C[C@H](O)C2)=NN1 (some centres not stated) | -3 | 0.6
9 | CCCc1noc(CCCC(=O)N2CCN(c3ccncc3Cl)CC2)n1 | -10 | 1.49
10 | CCCn1c(=O)cc(C(C)C)c2ccc(OCC(=O)N3CCOCC3)cc21 | -13 | 1.6
11 | O=C(Cc1ccc(Cl)cc1)N1CCN(c2cccnc2)C(=O)C1 | 13 | -1.63
12 | CC(C)c1ccc(S(=O)(=O)NCCc2n[nH]c(Cc3cccc(F)c3)n2)cc1 | 2 | -0.43
13 | Cc1ccc2nc(N3CN(Cc4ccccc4)CN(c4nc5ccc(C)cc5s4)C3)sc2c1 | -10 | 1.5
14 | CCc1ccc(/C=C/c2c[nH]c3ccccc23)[n+](CC)c1 | 93 | -8.52
15 | Cc1nc(NC(=O)N(C)[C@@H](C)CO)sc1C | -16 | 2.02
16 | Fc1cc(-c2ccc(N3CCCC3)nn2)c2ncccc2c1 | 12 | -2.38
17 | Cc1cc(Cl)c(C(=O)N2CCC(C3CC(N)CCO3)CC2)cc1C (configuration not stated) | -7 | 0.81
18 | Cc1cnn(CCNCC(=O)NCc2ccc3c(c2)OCO3)c1 | -3 | 0.52
19 | CC[C@](C)(NCCCc1ccccc1C)C(N)=O | -11 | 1.45

Row | SMILES | % Inhibition [%] | Z score
20 | CCC(N)C(=O)NC(CC)c1ccc(C)cc1 (configuration not stated) | -9 | 0.9
21 | O=C1CCc2cc(-c3cccc4cccnc34)ccc21 | -15 | 1.78
22 | Cc1nn2c(=O)[nH]ncc2c1-c1ccc(C(N)=O)cc1 | -1 | 0.15
23 | c1ccc(-c2cc(CN3CCCCC3)no2)cc1 | -3 | 0.47
24 | COc1ccc(Cn2nccc2NC(=O)N[C@H]2CCOC2)c(OC)c1OC | -3 | 0.46
25 | Cc1cc(Br)cnc1N1CCC2(CC1)OC[C@H](C)O2 | 5 | -0.45
26 | CC(C)c1noc(CN2CCCN(Cc3ccc(F)cc3)[C@H](C(C)C)C2)n1 | -10 | 1.42
27 | COCc1cc(NCc2cccnc2N(C)Cc2ccccc2)ncn1 | -2 | 0.34
28 | O=C(Cc1ccc(F)cc1F)NCCn1nc(C2CC2)ccc1=O | 5 | -0.67
29 | COCc1nc(CNC(=O)Cc2csc(C)n2)no1 | -14 | 2.76
30 | c1cnc(N2CCN(C3CCN(C[C@H]4CCCCO4)CC3)CC2)nc1 | -2 | 0.27
31 | CCn1nnc(C)c1CN1CCC2(CC1)OCCc1ccsc12 | 30 | -3.43
32 | Cc1cc(NC(=O)NC2CCOCC2)n(CC(C)C)n1 | 2 | -0.22
33 | COc1ccccc1-c1c(OC)nsc1OC | 10 | -1.83
34 | COc1ccc2c(c1)C(C(=O)NC(c1ccccc1)c1nnn[nH]1)CCC2 (configuration not stated) | -15 | 2.23
35 | C[C@@H](CCC(=O)NC1Cc2ccccc2C1)N1CCOCC1 | -9 | 1.42
36 | COC(=O)C1=C(C(=O)OC)SC(=C2C(=S)C(C)(C)N(C(=O)CCC3CCCCC3)c3cc(C)ccc32)S1 | 1 | -0.12
37 | CC(=O)Nc1ccc2c(c1)CN(C(=O)c1c(F)cccc1Cl)[C@H](C(=O)N(C)C)C2 | -5 | 0.78
38 | N#Cc1ccc(N2CC[S+]([O-])CC2)cn1 | -3 | 0.65

Row | SMILES | % Inhibition [%] | Z score
39 | CN(CCC#N)C(=O)C(C)(C)c1ccccc1 | -11 | 1.61
40 | NC(=O)Cc1n[nH]c(-c2ccccc2N2CCOCC2)n1 | -2 | 0.2
41 | CC(C)(C)c1ncc(C(=O)N[C@H](c2ccccc2)c2nnn[nH]2)cn1 | 2 | -0.3
42 | COc1ccc(C(=O)N(c2cccc(C(F)(F)F)c2)C(C)C)nn1 | -7 | 1.25
43 | CCN(Cc1cncs1)[C@@H](C)CN(C)C | -1 | 0.13
44 | CC(=O)N1CCC(C(=O)N2CC(S(=O)(=O)CC(C)C)C2)CC1 | -18 | 2.3
45 | CC[C@H](C)Oc1cc(CNC(=O)C2=COCCC2)ccn1 | -12 | 1.54
46 | COCCCN1CC(=O)N[C@@H]2CN(Cc3ccccn3)CC[C@@H]2OCc2cccc(c2)Oc2cc(ccc2OC)C1 | 2 | -0.32
47 | CCn1cc(-c2nc(-c3ccccc3C)no2)c(=O)c2cc(F)c(N3CCOCC3)cc21 | 40 | -3.29
48 | CCN(C[C@H]1CCCCO1)C(=O)Cc1c(C)n[nH]c1C | -12 | 1.16
49 | CN(Cc1ccncc1)S(=O)(=O)[C@H]1CCCN(C(=O)c2cccc(Cl)c2)C1 | -14 | 2.13
50 | CCOC(=O)[C@@H](c1ccccc1)N1CC(C(=O)NC)C1 | -11 | 1.03
51 | CC1CCC(C(=O)NCC2CCCCC2OCC(F)(F)F)O1 (configuration not stated) | 1 | -0.12
52 | CC[C@H](NC(=O)c1cnc(C)nc1)c1ccc(C)cc1 | -1 | 0.22
53 | COc1ccc2c(c1)N1CCN(CC(=O)N3CCOCC3)CC1C(C(=O)NCCc1ccccn1)C2 (configuration not stated) | -14 | 1.32
54 | Cc1ccc(CC(=O)NCCCN(C)C)cc1C | -7 | 0.98
55 | CC(C)c1nccn1CCNc1cnc2ccccc2n1 | -6 | 1.07
56 | CC(C)[C@H](Oc1ccccc1)C(=O)N1CCC(n2cc(CN)nn2)CC1 | 7 | -0.96
